Laboratory results taken from the supplement of paper PMC12217912.
The list shows a part of the results. The full chains were built here from the parent and the listed change. Inactive controls read about 0.05.

B1: TEV protease; numbered along this chain (parent)
chain: MGESLFKGPRDYNPISSSICHLTNESDGHTTSLYGIGFGPFIITNKHLFRRNNGTLVVQSLHGVFKVKDTTTLQQHLVDGRDMIIIRMPKDFPPFPQKLKFREPQREERICLVTTNFQTKSMSSMVSDTSCTFPSGDGIFWKHWIQTKDGQCGSPLVSTRDGFIVGIHSASNFTNTNNYFTSVPKNFMELLTNQEAQQWVSGWRLNADSVLWGGHKVFMVKPEEPFQPVKEATQL

Variants of: B1
Test: raw area under fraction-flipped curve 0-4 h after induction (AUC4h, not background-subtracted), DNA-recorder readout of cleavage of the substrate (dimensionless); higher = more cleavage of the substrate by the protease variant
Conditions: temperature: 34 °C; time window: 0-4 h after rhamnose induction
Method: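 In vivo DNA recorder in E. coli TOP10(DE3) ΔrhaA at 34 °C. Each TEVp single-site mutant (parent TEVp 0) is paired with a single-site variant of the 7-mer TEVs (canonical ENLYFQ|S). The substrate sits between flexible linkers in a Bxb1-sfGFP-TEVs-SsrA fusion, so cleavage stabilises Bxb1 and speeds flipping of a recombination array, read by NGS. The value is the raw area under the fraction-flipped curve over 0-4 h after rhamnose induction (AUC4h), with ≥20 reads per time point. It is not background-subtracted; inactive controls average about 0.047.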
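Further: Bxb1 expression induced with 0.2% (w/v) L-rhamnose at OD600 near 0.5, cultures sampled hourly, flipped fraction per protease–substrate barcode pair counted by paired-end Illumina sequencing.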

Variant	area with substrate ENLYAQS	area with substrate ENLYDQS	area with substrate ENLYEQS	area with substrate ENLYGQS	area with substrate ENLYHQS	area with substrate ENLYIQS	area with substrate ENLYKQS	area with substrate ENLYLQS	area with substrate ENLYMQS	area with substrate ENLYNQS	area with substrate ENLYRQS	area with substrate ENLYSQS	area with substrate ENLYTQS	area with substrate ENLYVQS	area with substrate ENLYWQS	area with substrate ENLYCQS	area with substrate ENLYPQS	area with substrate ENLYQQS	area with substrate ENLYYQS
I85V	0.0704	0.0636	0.0612	0.0683	0.0628	0.0966	0.0762	0.0633	0.0709	0.0638	0.0603	0.0524	0.0752	0.114	0.102	–	–	–	–
K230W	0.078	0.0605	0.0537	0.0628	0.0661	0.13	–	–	0.0887	0.0693	–	0.0436	0.072	–	0.0721	0.0721	0.0716	0.0658	0.0463
L77V	0.0712	–	0.0592	0.0507	0.0663	0.125	–	0.0808	–	0.0688	0.0658	0.0474	–	0.0811	0.0544	–	0.066	0.0541	–
Q118S	0.0755	0.0484	0.0613	–	0.0501	0.147	0.0996	–	0.0855	0.0768	0.0489	0.074	–	–	0.0748	0.0939	0.0894	0.0639	0.083
L190G	0.0729	0.0417	0.0605	–	0.051	0.0772	0.0808	0.0508	0.0599	0.0736	0.0743	0.0649	0.0775	0.107	0.0738	–	–	0.0629	–
K66I	0.0867	0.0494	0.0619	0.0409	0.0766	–	0.072	–	0.116	–	0.0742	–	0.0896	0.0938	–	–	0.0864	0.0684	–
T115W	0.0911	0.0518	0.101	0.0557	0.0731	0.127	0.0569	0.0817	0.0775	0.0728	0.062	0.0632	0.105	0.0973	0.0851	0.0975	0.0766	0.0711	–
Q151I	0.0617	0.0665	0.0639	0.0584	0.0715	0.0806	0.0208	–	0.0824	–	0.0581	0.062	–	0.125	0.0623	–	0.0597	0.0503	0.0798
H47I	0.0496	0.0661	0.0566	0.069	0.0731	0.0692	0.0629	–	–	–	0.0713	–	–	0.0588	0.0529	0.0702	0.0514	0.0612	0.0622
C20V	0.0746	0.0626	0.066	0.0772	0.0802	0.138	0.0584	0.101	0.0986	0.0707	0.0635	0.078	0.0744	0.156	–	0.0993	0.0733	0.0591	–
E107N	0.0861	–	–	0.0704	0.0618	0.125	0.0393	–	–	0.0754	–	0.081	0.0921	–	–	–	0.08	–	–
T176W	0.059	0.0575	0.0711	–	0.0603	0.0549	0.056	0.0667	0.065	0.0518	0.0454	0.059	–	0.0513	0.0589	–	–	0.0704	–
K148I	0.0718	0.0737	–	0.0661	0.0575	0.112	0.0657	0.084	0.0778	–	–	0.0689	0.0479	0.0874	0.109	–	0.0605	0.0649	0.0616
M122H	0.0787	0.0735	0.063	–	0.0695	0.107	–	0.0962	0.0935	0.0617	0.0607	–	–	0.135	0.0694	–	0.0729	–	–
G28P	0.0769	0.0459	0.0543	0.0564	0.0539	0.0771	0.0587	–	0.0528	–	–	–	–	0.0702	0.0631	–	0.0838	0.051	–
R204Q	0.0804	–	0.0888	0.0612	0.0749	0.144	0.0635	–	0.0928	0.0767	0.059	0.0875	–	0.139	0.125	0.0986	0.0709	–	–
S17H	0.0882	0.0573	0.084	0.0799	0.0742	0.128	0.0585	0.0532	–	0.0769	–	0.0796	0.0929	0.161	–	–	0.043	0.0684	0.0633
K46L	0.09	0.0589	0.0664	0.0693	0.0653	–	0.0728	–	0.0628	0.0779	0.0591	0.0536	–	0.113	–	0.0869	0.0653	0.0706	0.0635
P9V	0.0817	0.0598	0.074	0.0275	0.0742	0.12	–	–	0.104	0.0559	0.0606	–	–	0.109	0.0712	–	0.099	–	–
I164P	0.066	0.0553	0.0544	0.0665	0.0541	0.0309	0.0494	–	0.0513	0.0583	0.0613	0.0616	0.0616	0.0616	0.049	0.0294	0.0508	–	0.0556
E107S	0.0802	0.0638	0.0701	0.0988	0.0681	0.106	0.074	0.0768	0.0864	–	0.067	0.091	0.082	0.0999	0.0868	–	0.0704	0.051	0.0441
G54T	0.0616	–	0.0582	0.0614	0.0728	0.0819	0.0722	0.0641	0.0566	0.0655	0.0529	0.0527	0.0628	0.0777	0.0614	0.0769	0.0614	–	–
N45A	0.0669	0.0647	0.0637	0.0615	0.0618	0.0848	0.0586	0.0727	0.0556	0.063	0.0626	–	0.0793	0.0844	0.0589	0.0794	0.054	0.0633	0.0663
D69C	0.0697	0.07	0.0456	0.102	0.0601	0.103	0.0601	0.0799	0.0659	0.0761	0.0291	–	–	0.105	0.0943	–	0.0694	–	0.0261
